# Source: PubChem BioAssay AID1458 (National Center for Advancing Translational Sciences (NCATS), 2008)
# Among all 210,000 compounds or so, about 5,900 (2.8%) were called active. Inconclusive means that the source gave no clear call. Such entries were picked first, then a sample of the others. Calls come from the whole dose curve; as a rule, active = well fitted activation curve with a large enough effect; inconclusive = small, poorly fitted or top-dose-only effect; inactive = no such curve, though single readings can be large or run the other way. Potencies beside an inconclusive call are fits to weak or partial responses and may not hold up.
# Assay: qHTS Assay for Enhancers of SMN2 Splice Variant Expression; note: nearly all actives have a fitted effect of over 55% in size
# Details: HEK293 SMN2-luciferase splicing reporter, luminescence, 30-36 h; series mostly up to 46.1 µM
# Outline: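 HEK293 cells carry an SMN2 […]–luciferase reporter in which exon 7 inclusion puts luciferase in frame. Cells were plated 10-12 h before compound addition, then incubated 30-36 h at 37C. ONE-Glo luminescence was read; sodium butyrate at 4.5 mM final served as control.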
# Potency is the fitted concentration of half-maximal effect; tags give direction and shape of the fitted curve.
row,SMILES,Potency
1,CC(C)OC(=O)CSc1nc2c(cc1C#N)CCCCC2,"inconclusive: 5.62 µM [activator, partial curve, poor fit]"
2,O=C(O)c1ccc(N/N=C/c2ccc(F)c(F)c2)cc1,active: 1.41 µM
3,Cc1ccc(C(=O)NCC(=O)N/N=C/c2sccc2C)cc1[N+](=O)[O-],inactive
4,Oc1ccc(Br)cc1C=Nc1ccc(Cl)cc1,inactive
5,COc1ccc2[nH]cc(CCNc3ncnc4ccc(-c5ccccc5CN(C)C)cc34)c2c1,inactive
6,Nc1ccc2c(c1)sc1ccccc12,"inconclusive: 10 µM [activator, partial curve, poor fit]"
7,Cc1cccc(OCc2nc(-c3nonc3N)no2)c1C,active: 10 µM
8,Nc1nonc1-c1nc2ccccc2n1Cc1ccc(F)cc1,"inconclusive: 6.31 µM [activator, full curve, poor fit]"
9,CC(C)(C)NC(=O)Cn1nnc(-c2cccs2)n1,"inconclusive: 0.708 µM [activator, full curve]"
10,S=C(c1ccc(-c2ccccc2Cl)o1)N1CCCCC1,active: 12.6 µM
11,Cc1cc(Nc2ccccc2)n(-c2cccc(Cl)c2)n1,"inconclusive: 0.0025 µM [activator, full curve, poor fit]"
12,Cc1cc(C(C)(C)C)c(O)c(C(C)(C)C)c1,"inconclusive: 0.708 µM [activator, single point]"
13,C/C(=N\OC(=O)c1ccc(Cl)c(Cl)c1)c1sc(C)nc1C,inactive
14,COc1ccc(C2CC(c3ccc4ccccc4c3)=NN2C(=O)COC(=O)C2CCC(=O)N2)cc1 (centres undefined),active: 14.1 µM
15,COc1cccc(Cn2c(=O)n(-c3ccc(C)c(F)c3)c(=O)c3sc4ccccc4c32)c1,inactive
16,CC1=NN(c2ccccc2)C(=O)/C1=C\c1cn(-c2ccccc2)nc1C,inactive
17,CCCCN1C(=O)CC(Nc2ccc(CC)cc2)C1=O (centres undefined),"inconclusive: 15.8 µM [activator, single point]"
18,C/C(=N\OC(=O)c1ccc(Cl)cc1)c1sc(-c2ccccc2)nc1C,"inconclusive: 20 µM [activator, single point]"
19,CSc1ccc(S(=O)(=O)NC2CCCCC2)cc1,"inconclusive: 20 µM [activator, partial curve]"
20,CN(C)c1oc(-c2ccc(OCc3ccccc3)cc2)nc1C#N,"inconclusive: 15.8 µM [activator, single point]"
21,Nc1ccc(N2CCOCC2)c(Cl)c1,"inconclusive: 5.62 µM [activator, single point]"
22,CCn1c(=O)n(CC(=O)NC2CCCC(C)C2C)c(=O)c2ccccc21 (centres undefined),"inconclusive: 0.708 µM [activator, full curve, poor fit]"
23,COC(=O)c1ccc(COc2ccc(/C=N/N3CCN(C)CC3)cc2)cc1,active: 5.62 µM
24,Cc1nc2nc(-c3ccc(Cl)cc3)[nH]n2c(=O)c1C,"inconclusive: 12.6 µM [activator, partial curve]"
25,CCOC(=O)c1c(C)oc2ncnc(N3CCN(c4cccc(Cl)c4)CC3)c12,inactive

row,SMILES,Potency
1,O=C1CCC/C1=C/Nc1ccc2c(c1)OCO2,"inconclusive: 35.5 µM [activator, partial curve, poor fit]"
2,COc1ccccc1C(=O)NNC(=O)C(=O)NC(C)(C)C,inactive
3,COc1ccc(OCCC(=O)Nc2cc(C)on2)cc1,"inconclusive: 10 µM [activator, partial curve]"
4,O=C(Cc1ccccc1)Nc1cc(-c2nc3cc(Cl)ccc3o2)ccc1Cl,"inconclusive: 12.6 µM [activator, single point]"
5,O=C(NC(C(=O)O)c1ccccc1)c1ccc(S(=O)(=O)N2CCOCC2)cc1 (centres undefined),"inconclusive: 6.31 µM [activator, partial curve, poor fit]"
6,O=C(Nc1ccc(N2CCOCC2)c(Cl)c1)c1ccc(F)cc1,active: 11.2 µM
7,O=C(N/N=C1\CCCc2ccccc21)c1ccccc1Cl,"inconclusive: 35.5 µM [activator, single point]"
8,Cn1cc(/C=N/Nc2ccccc2)c2ccccc21,"inconclusive: 4.47 µM [activator, partial curve, poor fit]"
9,COc1cc(C(=O)NCc2ccc(OCCN(C)C)cc2)cc(OC)c1OC,"inconclusive: 10 µM [activator, single point]"
10,O=C1c2ccccc2NC(c2ccc(-c3cccc(Cl)c3)o2)N1O (centres undefined),"inconclusive: 2.51 µM [activator, partial curve]"
11,COc1cc(/C=C/c2nc(C#N)c(NC(C)c3ccccc3)o2)cc(OC)c1OC (centres undefined),"inconclusive: 14.1 µM [activator, single point]"
12,Cc1cc(-c2cc(C(=O)O)c3ccccc3n2)c(C)s1,"inconclusive: 28.2 µM [activator, single point]"
13,O=C(Nc1cc(Cl)ccc1N1CCOCC1)c1ccc2c(c1)OCCO2,inactive
14,N/C(=N\OS(=O)(=O)c1cccc([N+](=O)[O-])c1)c1ccncc1,"inconclusive: 0.01 µM [activator, full curve]"
15,Cc1ccc(N=Nc2c(O)n(CN3CCOCC3)c3ccccc23)cc1,active: 22.4 µM
16,CCCn1c(N)c(C(=O)CSc2ncc(C(F)(F)F)cc2Cl)c(=O)[nH]c1=O,"inconclusive: 35.5 µM [activator, single point]"
17,CC(C)NC(C(=O)Nc1cc(Cl)cc(Cl)c1)c1ccccc1 (centres undefined),"inconclusive: 0.501 µM [activator, single point]"
18,CNc1nnc(CSc2nc(C)cc(C)n2)s1,"inconclusive: 11.2 µM [activator, partial curve, poor fit]"
19,COC(=O)CNC(=O)Cc1c(F)cccc1Cl,"inconclusive: 0.0089 µM [activator, full curve, poor fit]"
20,CCCCNC(=S)Nc1cccc(C(C)=O)c1,"inconclusive: 2.82 µM [activator, partial curve]"
21,COc1ccccc1CNC(=O)c1cc(=O)c2ccccc2o1,inactive
22,O=C(Nc1ccc(F)cc1)N1CCOCC1,"inconclusive: 4.47 µM [activator, full curve, poor fit]"
23,COc1ccc(C(=O)c2cn(Cc3cccc(C)c3)c3cc4c(cc3c2=O)OCCO4)cc1OC,inactive
24,CCn1c(SCC(=O)c2ccc3c(c2)OCCO3)nnc1-c1ccco1,inactive
25,COc1ccc2[nH]cc(C(=O)CN3CCC(C)CC3)c2c1,"inconclusive: 12.6 µM [activator, single point]"

row,SMILES,Potency
1,CCOc1ccc(C(=O)/C=C/Nc2ccc(S(=O)(=O)Nc3onc(C)c3C)cc2)cc1,"inconclusive: 22.4 µM [activator, partial curve, poor fit]"
2,CCCCC(=O)N/N=C/c1sccc1C,inactive
3,COc1ccc(NC(=O)c2cc(-c3cc(C)cc(C)c3O)n[nH]2)cc1Cl,inactive
4,O=C(Nc1ccc(F)cc1)c1ccc2nc[nH]c2c1,"inconclusive: 12.6 µM [activator, single point]"
5,Cc1cc(=O)oc(C)c1C(=O)NCCNC(=O)c1c(C)cc(=O)oc1C,"inconclusive: 35.5 µM [activator, single point]"
6,c1ccc(CCn2c3ccccc3c3nnc(SCc4ccc5nonc5c4)nc32)cc1,"inconclusive: 35.5 µM [activator, single point]"
7,CCOCCCn1c(=N)c(C(=O)NC2CCCC2)cc2c(=O)n3cccc(C)c3nc21,inactive
8,CC1(C)Cc2nc3sc(C(=O)NCCO)c(N)c3cc2CO1,"inconclusive: 20 µM [activator, partial curve, poor fit]"
9,CCCN(CCC)C(=O)Cn1c(=O)n(-c2ccc(CC)cc2)c(=O)c2c3c(sc21)CCC3,inactive
10,OCCN(CCO)Cc1csc2ccccc12,"inconclusive: 0.126 µM [activator, full curve]"
11,CCOc1ccc(N(CC)C(=O)c2cc3c(s2)-c2ccc(Cl)cc2SC3)cc1,"inconclusive: 0.0158 µM [activator, full curve, poor fit]"
12,COC(=O)c1ccccc1NC(=O)Nc1cccnc1,inactive
13,O=C(CSc1nc2ccccc2[nH]1)c1cccs1,"inconclusive: 22.4 µM [activator, single point]"
14,CCCc1nc2nc(C)c(NS(=O)(=O)c3ccc(C)c(C)c3)c(=O)n2[nH]1,inactive
15,C=CCn1c(N)c(C(=O)N2CCN(C)CC2)sc1=S,"inconclusive: 0.0141 µM [activator, full curve, poor fit]"
16,Clc1ccc(OCCCN2CCCCC2)c(Br)c1,"inconclusive: 6.31 µM [activator, full curve, poor fit]"
17,O=C1/C(=C\c2ccccc2)CCc2c1[nH]c1ccccc21,active: 11.2 µM
18,CC(=O)C1=C(C)Nc2ncnn2C1c1ccccc1OCc1ccccc1 (centres undefined),"inconclusive: 6.31 µM [activator, partial curve]"
19,O=C(NCc1ccc(Cl)cc1)NCC(F)(F)F,"inconclusive: 0.891 µM [activator, full curve, poor fit]"
20,Cc1ccc(S(=O)(=O)/N=C(/Nc2ccccn2)c2ccc(Cl)cc2)cc1,"inconclusive: 1.26 µM [activator, full curve]"
21,CCOCCCn1c(=NC(=O)c2ccc(OC)c(OC)c2)c(C#N)cc2c(=O)n3cccc(C)c3nc21,"inconclusive: 35.5 µM [activator, partial curve, poor fit]"
22,Cc1cc(Br)ccc1NC(=O)COc1cc(=O)n(C)c2ccccc12,inactive
23,Cc1ccc2oc(-c3cc(NC(=O)Cc4ccccc4)ccc3Cl)nc2c1,inactive
24,O=C(Nc1cccnc1)c1ccc(CN2CCc3ccccc3C2)cc1,inactive
